Laboratory results published in PMC4180639.
No constants are given. Whether binding was seen depends on the method and setting. For some of these results: In cells and extracts the contact can be indirect. Some results given as binding are weak or reduced against the parent protein; the word gives no strength.

The chains behind the UniProt entries cited, without tags or fusion partners. Where a name states a change or a piece, a line headed by the entry shows the natural chain unless it says otherwise. A line that says so, or that is headed by a name, gives the form on record, which may keep a tag or linker. Residues count along the entry.
UniProt O15105: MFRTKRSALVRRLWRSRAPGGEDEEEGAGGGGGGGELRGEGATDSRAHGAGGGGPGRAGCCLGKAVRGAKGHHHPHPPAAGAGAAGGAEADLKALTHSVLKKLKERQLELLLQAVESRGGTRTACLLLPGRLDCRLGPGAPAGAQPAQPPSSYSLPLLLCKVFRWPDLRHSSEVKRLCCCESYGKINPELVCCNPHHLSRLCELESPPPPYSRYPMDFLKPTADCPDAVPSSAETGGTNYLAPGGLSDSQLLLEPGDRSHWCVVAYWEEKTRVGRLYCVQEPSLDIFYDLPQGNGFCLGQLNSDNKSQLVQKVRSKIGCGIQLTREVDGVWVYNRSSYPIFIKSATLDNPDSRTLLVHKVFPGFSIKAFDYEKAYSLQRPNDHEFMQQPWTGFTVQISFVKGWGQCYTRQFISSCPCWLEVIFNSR
UniProt P84022: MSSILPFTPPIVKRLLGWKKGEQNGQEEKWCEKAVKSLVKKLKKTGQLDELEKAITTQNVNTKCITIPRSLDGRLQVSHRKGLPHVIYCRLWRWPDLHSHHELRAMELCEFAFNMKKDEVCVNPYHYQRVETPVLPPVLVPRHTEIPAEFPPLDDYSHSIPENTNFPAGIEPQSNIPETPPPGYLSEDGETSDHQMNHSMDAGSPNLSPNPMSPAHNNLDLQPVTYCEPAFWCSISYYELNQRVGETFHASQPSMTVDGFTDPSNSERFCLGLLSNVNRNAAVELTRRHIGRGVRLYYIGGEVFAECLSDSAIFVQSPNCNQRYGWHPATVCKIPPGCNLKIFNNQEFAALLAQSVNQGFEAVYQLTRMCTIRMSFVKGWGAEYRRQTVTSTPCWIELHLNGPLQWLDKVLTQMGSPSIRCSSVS
UniProt Q13485: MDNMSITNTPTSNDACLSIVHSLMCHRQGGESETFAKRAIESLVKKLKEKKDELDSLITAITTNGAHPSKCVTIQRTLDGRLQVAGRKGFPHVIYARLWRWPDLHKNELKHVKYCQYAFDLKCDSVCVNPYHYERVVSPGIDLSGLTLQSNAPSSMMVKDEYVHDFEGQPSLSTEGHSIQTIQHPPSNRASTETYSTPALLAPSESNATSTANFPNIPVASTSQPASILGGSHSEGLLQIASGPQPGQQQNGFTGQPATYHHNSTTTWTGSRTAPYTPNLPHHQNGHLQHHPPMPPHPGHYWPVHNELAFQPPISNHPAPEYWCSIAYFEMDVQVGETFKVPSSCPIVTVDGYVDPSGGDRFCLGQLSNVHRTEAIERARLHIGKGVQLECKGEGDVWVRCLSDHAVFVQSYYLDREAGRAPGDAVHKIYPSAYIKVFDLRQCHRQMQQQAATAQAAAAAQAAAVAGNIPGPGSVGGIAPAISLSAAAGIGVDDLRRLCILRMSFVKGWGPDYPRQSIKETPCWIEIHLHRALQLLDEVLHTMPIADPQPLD
UniProt Q15797: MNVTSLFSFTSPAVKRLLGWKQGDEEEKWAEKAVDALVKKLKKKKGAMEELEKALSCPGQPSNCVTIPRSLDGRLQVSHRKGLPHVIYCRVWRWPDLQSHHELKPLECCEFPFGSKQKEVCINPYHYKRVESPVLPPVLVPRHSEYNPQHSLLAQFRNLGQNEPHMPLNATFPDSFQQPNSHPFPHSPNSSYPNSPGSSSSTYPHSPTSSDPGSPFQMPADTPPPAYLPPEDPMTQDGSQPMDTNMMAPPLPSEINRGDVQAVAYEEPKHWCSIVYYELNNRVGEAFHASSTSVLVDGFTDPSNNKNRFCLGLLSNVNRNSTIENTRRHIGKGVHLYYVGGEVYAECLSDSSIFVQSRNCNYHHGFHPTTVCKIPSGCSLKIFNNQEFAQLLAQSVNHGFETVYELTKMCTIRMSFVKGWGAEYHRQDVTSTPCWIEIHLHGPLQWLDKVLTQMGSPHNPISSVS
UniProt Q15796: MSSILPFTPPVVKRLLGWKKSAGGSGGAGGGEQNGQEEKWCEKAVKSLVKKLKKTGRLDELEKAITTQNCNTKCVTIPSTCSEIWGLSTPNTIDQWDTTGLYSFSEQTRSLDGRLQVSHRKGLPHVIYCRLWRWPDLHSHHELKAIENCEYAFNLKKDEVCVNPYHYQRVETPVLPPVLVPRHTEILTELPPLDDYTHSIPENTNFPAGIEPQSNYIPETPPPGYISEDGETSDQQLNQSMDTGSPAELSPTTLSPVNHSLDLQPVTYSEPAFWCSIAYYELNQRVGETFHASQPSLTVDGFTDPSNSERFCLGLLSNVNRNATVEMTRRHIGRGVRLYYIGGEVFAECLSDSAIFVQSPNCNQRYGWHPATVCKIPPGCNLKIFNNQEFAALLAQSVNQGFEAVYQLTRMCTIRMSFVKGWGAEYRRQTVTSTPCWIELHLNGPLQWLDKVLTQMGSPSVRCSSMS
UniProt Q8BUN5: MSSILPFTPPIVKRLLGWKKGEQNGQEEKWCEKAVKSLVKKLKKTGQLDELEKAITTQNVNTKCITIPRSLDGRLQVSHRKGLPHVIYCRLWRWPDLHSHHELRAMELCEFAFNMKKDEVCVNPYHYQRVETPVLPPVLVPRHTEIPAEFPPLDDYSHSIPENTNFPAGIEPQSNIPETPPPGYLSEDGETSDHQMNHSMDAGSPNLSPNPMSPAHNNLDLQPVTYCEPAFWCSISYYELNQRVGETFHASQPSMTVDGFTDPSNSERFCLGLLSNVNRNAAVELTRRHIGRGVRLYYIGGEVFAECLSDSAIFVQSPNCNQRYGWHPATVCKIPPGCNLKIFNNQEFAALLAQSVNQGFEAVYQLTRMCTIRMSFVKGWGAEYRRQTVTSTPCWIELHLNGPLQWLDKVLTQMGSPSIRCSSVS
pLexA-CRU (amino-acid residues 4105–4633) of Ahnak (Q09666, residues 4105-4633): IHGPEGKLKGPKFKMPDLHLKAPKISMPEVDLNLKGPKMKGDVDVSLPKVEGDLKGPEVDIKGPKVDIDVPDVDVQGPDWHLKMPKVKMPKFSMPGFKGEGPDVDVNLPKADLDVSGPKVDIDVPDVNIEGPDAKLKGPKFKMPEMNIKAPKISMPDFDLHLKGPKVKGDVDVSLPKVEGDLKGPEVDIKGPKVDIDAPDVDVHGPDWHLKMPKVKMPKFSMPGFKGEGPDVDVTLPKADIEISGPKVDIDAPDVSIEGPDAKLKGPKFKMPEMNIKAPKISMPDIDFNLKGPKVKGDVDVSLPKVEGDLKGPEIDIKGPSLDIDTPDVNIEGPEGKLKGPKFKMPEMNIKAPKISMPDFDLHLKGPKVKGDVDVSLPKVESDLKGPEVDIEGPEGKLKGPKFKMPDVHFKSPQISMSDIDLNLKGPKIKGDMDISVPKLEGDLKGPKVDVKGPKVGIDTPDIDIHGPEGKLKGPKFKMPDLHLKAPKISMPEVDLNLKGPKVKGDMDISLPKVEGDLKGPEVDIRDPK
GFP-tagged mutant 4CRU of Ahnak (valine 4607 to methionine) (Q09666, form named): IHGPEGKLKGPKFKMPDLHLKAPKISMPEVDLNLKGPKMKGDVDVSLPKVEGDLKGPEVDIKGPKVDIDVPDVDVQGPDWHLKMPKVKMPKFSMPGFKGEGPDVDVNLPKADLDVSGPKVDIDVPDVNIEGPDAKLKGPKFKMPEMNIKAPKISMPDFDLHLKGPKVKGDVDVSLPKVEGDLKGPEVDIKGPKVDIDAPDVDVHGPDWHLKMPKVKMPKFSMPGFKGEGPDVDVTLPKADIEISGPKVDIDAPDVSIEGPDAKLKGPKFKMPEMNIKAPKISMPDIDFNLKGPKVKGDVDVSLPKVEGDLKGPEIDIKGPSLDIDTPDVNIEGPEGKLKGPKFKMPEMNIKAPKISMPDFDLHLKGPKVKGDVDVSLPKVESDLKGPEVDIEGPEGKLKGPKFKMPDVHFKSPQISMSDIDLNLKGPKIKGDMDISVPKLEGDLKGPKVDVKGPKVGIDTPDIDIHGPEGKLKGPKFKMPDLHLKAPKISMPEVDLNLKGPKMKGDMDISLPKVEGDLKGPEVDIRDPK
UniProt P30280: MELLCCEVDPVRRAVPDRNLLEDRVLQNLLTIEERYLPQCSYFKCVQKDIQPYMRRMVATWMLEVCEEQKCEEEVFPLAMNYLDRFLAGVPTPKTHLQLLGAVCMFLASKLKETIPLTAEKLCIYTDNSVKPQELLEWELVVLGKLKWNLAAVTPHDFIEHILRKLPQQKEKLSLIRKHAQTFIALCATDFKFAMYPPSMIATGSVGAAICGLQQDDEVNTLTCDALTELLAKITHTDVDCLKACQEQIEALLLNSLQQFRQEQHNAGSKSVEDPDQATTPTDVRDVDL
UniProt P46414: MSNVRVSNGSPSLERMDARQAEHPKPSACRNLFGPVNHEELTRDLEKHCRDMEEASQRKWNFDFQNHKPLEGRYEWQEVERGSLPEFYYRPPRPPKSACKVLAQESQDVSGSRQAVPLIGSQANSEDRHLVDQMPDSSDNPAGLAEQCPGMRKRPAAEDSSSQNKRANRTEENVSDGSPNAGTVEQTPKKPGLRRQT

What was measured:
HA-Smad7 [1] = molecular target: HA-Smad7 (UniProt O15105); experiment: co-IP; COS7 cells transfected with Flag-4CRU of Ahnak and HA-Smad7; serum starved 16 h, without or with 10 ng/ml TGFβ; precipitated with antibody to HA, blotted for Flag
HA-Smad7 [2] = molecular target: HA-Smad7 (UniProt O15105); experiment: co-IP; COS7 cells co-transfected with GFP-tagged wild-type or mutant 4CRU and Myc-Smad3 (precipitated with antibody against GFP) or HA-Smad7 (precipitated with antibody against HA)
[3] = molecular target: Myc-tagged Smad3 (pCS-Myc-Smad3) (UniProt P84022); experiment: co-IP; COS7 cells transfected with HA-4CRU of Ahnak and Flag- or Myc-tagged Smads; lysates precipitated with antibody to Flag or Myc, blotted with antibody to HA
[4] = molecular target: Flag-tagged Smad4 (pCS2-Flag-Smad4) (UniProt Q13485); experiment: as above
[5] = molecular target: Flag-tagged Smad1 (pCS4-3Flag-Smad1) (UniProt Q15797); experiment: as above
[6] = molecular target: Flag-tagged Smad2 (pCS4-3Flag-Smad2) (UniProt Q15796); experiment: as above
[7] = molecular target: endogenous Smad3 (NIH3T3 cells) (mouse (endogenous in NIH3T3)) (UniProt Q8BUN5); experiment: co-IP; NIH3T3 cells transfected with pcDNA3-HA-4CRU of Ahnak, without or with 10 ng/ml TGFβ; lysates precipitated with anti-Smad3 antibody (endogenous Smad3)
[8] = molecular target: pLexA-CRU (amino-acid residues 4105–4633) of Ahnak (human) (UniProt Q09666); experiment: two-hybrid; directed test in EGY48/p80-lacZ yeast; pLexA-CRU (4105–4633) of Ahnak with Smad constructs; growth on SD/Gal/Raf/Ura-Trp-His-Leu- plates (Leu2 reporter)
[9] = molecular target: GFP-tagged mutant 4CRU of Ahnak (valine 4607 to methionine) (human) (UniProt Q09666); experiment: co-IP; COS7 cells co-transfected with GFP-tagged wild-type or mutant 4CRU and Myc-Smad3 (precipitated with antibody against GFP) or HA-Smad7 (precipitated with antibody against HA)
[10] = molecular target: GFP-tagged wild-type 4CRU of Ahnak (human) (UniProt Q09666); experiment: as above
[11] = molecular target: T1, CDK4 (endogenous, NIH3T3 cells) (mouse (endogenous in NIH3T3)) (UniProt P30285); experiment: co-IP; endogenous proteins; lysates of NIH3T3 and NIH3T3/Ahnak cells precipitated with antibodies against cyclin D2 or CDK4, immunoblot
T1 sequence: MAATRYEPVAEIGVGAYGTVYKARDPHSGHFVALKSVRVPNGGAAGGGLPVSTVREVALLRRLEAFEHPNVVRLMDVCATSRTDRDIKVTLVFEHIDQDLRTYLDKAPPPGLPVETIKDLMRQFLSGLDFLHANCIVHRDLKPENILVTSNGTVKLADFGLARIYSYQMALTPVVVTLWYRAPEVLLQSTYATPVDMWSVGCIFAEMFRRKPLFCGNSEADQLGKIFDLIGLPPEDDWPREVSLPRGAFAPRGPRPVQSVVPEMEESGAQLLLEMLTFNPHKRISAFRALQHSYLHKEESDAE

[12] = molecular target: cyclin D2 (endogenous, NIH3T3 cells) (mouse (endogenous in NIH3T3)) (UniProt P30280); experiment: as above

Question: Which binding (HA-Smad7 [1]) does the source give for “Flag-4CRU of Ahnak (from UniProt Q09666 4105-4633) (domain or fragment)” here?
Answer: The binding was “binds”.

Question: For “GFP-tagged mutant 4CRU of Ahnak (valine 4607 to methionine) (from UniProt Q09666 4105-4633) (domain or fragment)”, which binding (HA-Smad7 [2]) is on record?
Answer: Its binding is “binds”.

Question: With “GFP-tagged wild-type 4CRU of Ahnak (from UniProt Q09666 4105-4633) (domain or fragment)” as the molecule, how does the binding (HA-Smad7 [2]) read?
Answer: The binding was “binds”.

Question: Which binding [3] does the source give for “HA-tagged 4CRU of Ahnak (pcDNA3-HA-4CRU) in COS7 cells (from UniProt Q09666 4105-4633) (domain or fragment)” here?
Answer: Its binding is “binds”.

Question: What about the binding [4] of the same molecule?
Answer: The binding was “binds”.

Question: What about the binding [5] of the same molecule?
Answer: Its binding is “binds”.

Question: And the binding [6]?
Answer: The binding was “binds”.

Question: With “HA-tagged 4CRU of Ahnak (pcDNA3-HA-4CRU) in NIH3T3 cells (from UniProt Q09666 4105-4633) (domain or fragment)” as the molecule, how does the binding [7] read?
Answer: Its binding is “binds”.

Question: How did the binding [8] turn out when “MH1 domain (amino-acid residues 2–183) of Smad2, yeast two-hybrid construct (from UniProt Q15796 2-183) (domain or fragment)” was run?
Answer: The binding was “no binding”.

Question: With “MH2 domain (amino-acid residues 269–468) of Smad2, yeast two-hybrid construct (from UniProt Q15796 269-467) (domain or fragment)” as the molecule, how does the binding [8] read?
Answer: The binding was “binds”.

Question: Which results are given for “Myc-tagged Smad3 (pCS-Myc-Smad3) (from UniProt P84022 1-425)”?
Answer: binding [9]: binds; binding [10]: binds

Question: Which binding [8] does the source give for “Smad1 (yeast two-hybrid construct) (from UniProt Q15797 1-465)” here?
Answer: The binding was “binds”.

Question: How did the binding [8] turn out when “Smad3 (yeast two-hybrid construct) (from UniProt P84022 1-425)” was run?
Answer: The binding was “binds”.

Question: Which binding [8] does the source give for “full length Smad2 (amino-acid residues 2–468), yeast two-hybrid construct (from UniProt Q15796 2-467)” here?
Answer: The binding was “binds”.

Question: “linker region (amino-acid residues 180–273) of Smad2, yeast two-hybrid construct (from UniProt Q15796 180-273) (domain or fragment)” was tested. Which binding [8] did it give?
Answer: The binding was “no binding”.

Question: “p27^Kip1 (endogenous, NIH3T3 cells) (from UniProt P46414 1-197)” was tested. Which binding [11] did it give?
Answer: The binding was “binds”.

B1: CDK4 (endogenous, NIH3T3 cells) (enzyme, UniProt P30285 1-303)
chain: T1 sequence
Question: Which binding [12] does the source give for B1 here?
Answer: Its binding is “binds”.

B2: p21^Waf/Cip (endogenous, NIH3T3 cells) (protein, UniProt P39689 1-159)
chain: MSNPGDVRPVPHRSKVCRCLFGPVDSEQLRRDCDALMAGCLQEARERWNFDFVTETPLEGNFVWERVRSLGLPKVYLSPGSRSRDDLGGDKRPSTSSALLQGPAPEDHVALSLSCTLVSERPEDSPGGPGTSQGRKRRQTSLTDFYHSKRRLVFCKRKP
Question: For B2, which binding [11] is on record?
Answer: Its binding is “binds”.
